The BET-seq Pho4 binding data (Le et al. 2018)
This is one part of the list. Values were computed here from the reads of four pooled replicates and scatter widely.

Biological target: T1, Pho4 (S. cerevisiae) (UniProt P07270)
T1 sequence: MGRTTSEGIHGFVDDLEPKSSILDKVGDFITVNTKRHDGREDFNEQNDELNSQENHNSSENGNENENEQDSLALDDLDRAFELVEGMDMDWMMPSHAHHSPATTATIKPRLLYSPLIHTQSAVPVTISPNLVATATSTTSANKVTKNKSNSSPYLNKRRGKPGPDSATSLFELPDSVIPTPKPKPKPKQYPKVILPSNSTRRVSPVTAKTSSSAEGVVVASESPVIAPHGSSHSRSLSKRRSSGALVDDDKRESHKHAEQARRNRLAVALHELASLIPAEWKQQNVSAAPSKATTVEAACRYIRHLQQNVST
Assay: relative binding free energy (BET-seq); higher = weaker binding
Details: reference: library average

| Sequence | relative binding free energy [kcal/mol] |
| --- | --- |
| TTTATCACGTGGGGGA | -0.02 |
| GTCAACACGTGTAGGG | 0.02 |
| TTGGACACGTGTCGGA | 0.26 |
| GTTTGCACGTGTAACT | 0.17 |
| GCTTTCACGTGATTTA | 0.41 |
| TAGATCACGTGTATGG | 0.18 |
| TATGTCACGTGACGGG | 0.26 |
| TACTGCACGTGATGGT | -0.08 |
| AAGTACACGTGGGGTG | -0.13 |
| CGTTACACGTGATGAG | 0.19 |
| TGTCGCACGTGCAGGC | 0.08 |
| TTTAACACGTGTGTGA | -0.05 |
| ACTGTCACGTGATAGG | 0.09 |
| GATGCCACGTGGTTTT | -0.01 |
| TGATTCACGTGTGAAG | 0.25 |
| CGGGTCACGTGTGGTG | 0.19 |
| ATTGACACGTGATGTT | 0.08 |
| TCTTCCACGTGTTTGT | 0.01 |
| GTGAGCACGTGGGTGT | -0.19 |
| GAAAACACGTGGGGTA | -0.01 |
| ATGGACACGTGTTGTG | 0.04 |
| AGTTTCACGTGGCGTT | 0.35 |
| GTATGCACGTGGCGGG | -0.18 |

| Sequence | relative binding free energy [kcal/mol] |
| --- | --- |
| TATTACACGTGCTTGA | 0.13 |
| TGGAGCACGTGGTGCG | -0.21 |
| GGTGGCACGTGGACTG | 0.04 |
| TGCACCACGTGGGGGG | -0.24 |
| GGAGGCACGTGTGGCG | 0.01 |
| ATGATCACGTGATATT | 0.19 |
| GTGACCACGTGTAGTT | 0.01 |
| TGGGGCACGTGATCGG | 0.03 |
| TGGGTCACGTGAGTGA | 0.2 |
| GTTCTCACGTGGTGAG | 0.3 |
| GGATGCACGTGGGTCT | -0.14 |
| ACGGGCACGTGCCGGG | -0.16 |
| TATGACACGTGTTTAA | -0.03 |
| AAAGACACGTGTAGGG | 0.03 |
| TGCGTCACGTGGGTGG | -0.03 |
| TTTACCACGTGTTTAT | -0.1 |
| CTGGTCACGTGGGTGC | 0.04 |
| TGTTGCACGTGAGTTC | 0.23 |
| TTACGCACGTGATGGA | -0.04 |
| TTATTCACGTGATGTA | 0.31 |
| GGCGTCACGTGATTGA | 0.32 |
| GGGCTCACGTGATTTA | 0.41 |
| TATGTCACGTGGCGTT | -0.01 |

| Sequence | relative binding free energy [kcal/mol] |
| --- | --- |
| GTGAACACGTGTCGGT | 0.11 |
| GCTGCCACGTGGGTTG | -0.05 |
| TGATTCACGTGACGGT | 0.31 |
| ATTTTCACGTGGGTGG | 0.15 |
| TGGCTCACGTGGCGAG | 0.18 |
| GTTTACACGTGGTACA | 0.1 |
| ATAGACACGTGGGAGA | 0.1 |
| GGAGCCACGTGAGCGG | 0.26 |
| CTGGCCACGTGGTGAT | -0.07 |
| TATTACACGTGGCCGG | 0.18 |
| CGAGGCACGTGTGGTA | -0.09 |
| CATGGCACGTGTGTTT | 0.03 |
| TAATGCACGTGCGGTT | -0.01 |
| GGAATCACGTGGTGGC | 0.19 |
| TCGTGCACGTGTTGCG | 0.05 |
| TGAGGCACGTGATAGT | -0.12 |
| GTCGGCACGTGGTTGG | -0.06 |
| AAGGGCACGTGGGCGG | -0.18 |
| CTAGGCACGTGCGGCG | -0.12 |
| TGTGTCACGTGGCCGG | -0.09 |
| ACGTTCACGTGGCGGT | 0.24 |
| TGTAGCACGTGCAGAT | -0.09 |
| GTGTACACGTGTTATT | 0.09 |

| Sequence | relative binding free energy [kcal/mol] |
| --- | --- |
| TAGGGCACGTGTGGAT | 0 |
| TACGGCACGTGCTGTT | -0.21 |
| AGTAACACGTGATTGT | 0.03 |
| CTGGGCACGTGCTTGT | -0.13 |
| TCCGGCACGTGGTAAT | 0.17 |
| GGATGCACGTGCTTTG | -0.18 |
| AGTTTCACGTGCATGT | 0.21 |
| ATGAACACGTGGGTAT | -0.06 |
| TGGTTCACGTGCAAGG | 0.27 |
| ATGGTCACGTGAACTG | 0.33 |
| CGGGGCACGTGCATGG | -0.27 |
| TGTTGCACGTGGAACG | 0.05 |
| TATGTCACGTGCAGCG | 0.14 |
| GTCTTCACGTGAGTTA | 0.32 |
| GTTTGCACGTGGGGGA | -0.06 |
| TGCGTCACGTGGTGCG | -0.17 |
| ATGGGCACGTGTGCTG | -0.03 |
| GGTATCACGTGGAAGG | 0.22 |
| ATCGGCACGTGGATAT | -0.03 |
| TATGGCACGTGGGTAG | -0.29 |
| TGGTTCACGTGAAGGT | 0.43 |
| TTTTGCACGTGACGGT | 0.01 |
| GTAGTCACGTGCTTGG | 0.01 |

| Sequence | relative binding free energy [kcal/mol] |
| --- | --- |
| GGGGCCACGTGGGCTT | -0.11 |
| AATTACACGTGCATGG | 0.11 |
| ATGATCACGTGGCAGG | 0.08 |
| TTCAACACGTGCGTTG | 0.13 |
| AGATTCACGTGTGCGC | 0.37 |
| ATCGGCACGTGTTTTA | -0.01 |
| CTGTTCACGTGTGATT | 0.14 |
| GCGAGCACGTGGTGAG | -0.09 |
| GGGGACACGTGTGAAG | 0.09 |
| GGCCACACGTGTGGTT | 0.19 |
| ATAAGCACGTGTAGGA | -0.05 |
| TGTTGCACGTGTGGGT | 0.14 |
| GTAGGCACGTGGTCGC | -0.16 |
| AATTGCACGTGGTATT | -0.09 |
| TTGGTCACGTGAAAGG | 0.4 |
| AATCACACGTGTGGGG | 0.09 |
| TGCCGCACGTGAGGTG | 0.1 |
| GGCAGCACGTGATATG | 0.13 |
| GGCATCACGTGGAGTT | 0.22 |
| GGGGACACGTGCGTGG | -0.07 |
| CGTAGCACGTGCTGGG | -0.31 |
| TGTTACACGTGTGTGC | 0.09 |
| TGGTACACGTGCAGTT | 0.07 |
